Out of some 110,000 compounds screened, about 230 (0.21%) showed an effect of 50% or more. The list shows a part of the results.
Target: DPAP1 (Plasmodium falciparum, UniProt Q8IIJ9)
Assay: primary screen, percent inhibition; read by cleavage of a fluorogenic dipeptide substrate; higher = more effect of the substance
Design: species or system P. falciparum D10 trophozoite lysates; single well
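Also: 30 min substrate incubation versus DMSO and 10 µM JCP410 controls.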

Chain of DPAP1 (Q8IIJ9 whole entry, looked up): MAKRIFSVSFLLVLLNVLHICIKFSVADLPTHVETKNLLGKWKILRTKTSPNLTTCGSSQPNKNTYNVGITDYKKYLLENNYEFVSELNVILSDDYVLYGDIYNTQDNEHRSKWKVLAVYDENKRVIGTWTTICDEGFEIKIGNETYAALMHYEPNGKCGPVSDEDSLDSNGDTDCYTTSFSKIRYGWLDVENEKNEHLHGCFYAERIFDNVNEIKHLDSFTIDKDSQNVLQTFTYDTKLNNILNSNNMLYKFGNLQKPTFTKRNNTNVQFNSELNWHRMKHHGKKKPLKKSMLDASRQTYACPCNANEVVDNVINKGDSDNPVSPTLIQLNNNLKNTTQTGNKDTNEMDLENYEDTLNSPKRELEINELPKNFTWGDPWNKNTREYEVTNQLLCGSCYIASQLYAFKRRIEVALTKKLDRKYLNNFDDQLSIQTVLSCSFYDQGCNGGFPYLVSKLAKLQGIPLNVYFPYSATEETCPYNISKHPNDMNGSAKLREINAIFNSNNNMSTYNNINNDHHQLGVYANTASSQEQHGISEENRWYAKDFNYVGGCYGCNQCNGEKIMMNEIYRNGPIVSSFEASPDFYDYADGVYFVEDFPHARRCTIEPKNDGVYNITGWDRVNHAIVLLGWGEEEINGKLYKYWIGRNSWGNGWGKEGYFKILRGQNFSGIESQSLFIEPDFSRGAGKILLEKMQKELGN

| Structure (SMILES) | % Inhibition @ 10 uM |
| --- | --- |
| CCN(CC)CC(O)Cn1c(C)c(C)c2ccccc21 (centres unmarked) | 5.31% |
| O=C1N/C(=C/c2ccc(N3CCOCC3)o2)C(=O)N1c1cccc(Cl)c1 | 2.86% |
| c1ccc(C2(Cn3ccc4ccccc43)OCCO2)cc1 | 4.33% |
| O=C(Nc1nn2c(COc3ccccc3)nnc2s1)c1cccc(F)c1 | -4.37% |
| COc1nc2c(c(=O)n(C)c(=O)n2C)n1Cc1ccc(Cl)c(Cl)c1 | 5.31% |
| CCc1ccc(C2C(C#N)=C(N)Oc3cc(N(C)C)ccc32)cc1 (centres unmarked) | -2.91% |
| CC1(C)CC2=Nc3ccccc3NC(c3cc4c(cc3[N+](=O)[O-])OCO4)C2=C(O)C1 (centres unmarked) | -1.25% |
| CCOC(=O)N1CCN(C(=O)c2ccc(OCC)c(OCC)c2)CC1 | -3.69% |
| CCC(=O)N1CCN(c2ccc(NC(=O)COc3ccc(C(C)CC)cc3)cc2)CC1 (centres unmarked) | 27.7% |
| CCO/C(O)=C1\C(C)=NC(=S)NC1c1ccccc1OC(F)F (centres unmarked) | -0.142% |
| CCn1c2ccccc2c2cc(CN(CCN(C)C)Cc3ccccc3)ccc21 | -2.18% |
| CCOc1cccc2c1OC(c1cccnc1)N1N=C(c3ccccc3)CC21 (centres unmarked) | -1.11% |
| Fc1ccccc1N1CCN(c2ncccn2)CC1 | -5.62% |
| COc1ccc(CC(=O)Nc2ccc(S(=O)(=O)Nc3onc(C)c3C)cc2)cc1 | 1.57% |
| Cc1cc(C)nc(NC(=O)COc2ccccc2)n1 | -1.36% |
| CC(C)CC(C(=O)NCC#N)c1cccc(-c2ccc(S(=O)(=O)N3CCC(N(C)C)C3)cc2)c1 (centres unmarked) | 3.19% |
| COc1cc(-c2nc3s/c(=C\C4=Cc5ccccc5OC4)c(=O)n3n2)cc(OC)c1OC | -6.78% |
| CN1CCN(C(=O)CCCCCCCCC(=O)N2CCN(C)CC2)CC1 | 9.68% |
| N#CCNC(=O)C(Sc1ccccc1)c1ccccc1 (centres unmarked) | -4.65% |
| CCOC(=O)c1c(NC(=O)c2cc(-c3ccccc3OC)on2)sc(C(C)=O)c1C | 6.29% |
| Cc1cc(C)c(NC(=O)C2CCCCN2C2CCCCC2)c(C)c1 (centres unmarked) | -0.415% |
| Nc1nc(N)nc(-c2ccc(-c3nc(N)nc(N)n3)cc2)n1 | -5.68% |
| Cc1ccc(/C=c2\sc3nc(=O)c(Cc4ccc(Cl)cc4)nn3c2=O)cc1 | 0.628% |
| Cn1c(NCCc2ccccc2)cc(=O)n(C)c1=O | 2.44% |
| CCCn1c(-c2ccc(OC)cc2)c(-c2ccc(OC)cc2)oc1=O | -2.86% |
| Cc1nccn1CC1CCc2c(c3ccccc3n2C)C1=O (centres unmarked) | 0.962% |

| Structure (SMILES) | % Inhibition @ 10 uM |
| --- | --- |
| CCOC(=O)c1c(-c2ccccc2)nn(-c2ccccc2)c1C | -2.77% |
| COC(=O)c1ccc(C2c3c(oc4ccccc4c3=O)C(=O)N2c2ccc(C)cn2)cc1 (centres unmarked) | -3.64% |
| CC(C)c1ccc(N2C(=O)CC(N3CCc4ccccc4C3)C2=O)cc1 (centres unmarked) | 4.76% |
| COc1ccc(-c2nn3c(-c4ccc(C(C)(C)C)cc4)nnc3s2)cc1 | 3.59% |
| Cn1c(=O)c2c(nc3n(Cc4ccc5c(c4)OCO5)c(-c4ccccc4)cn23)n(C)c1=O | -0.564% |
| COc1ccc(C2CC(=O)Nc3cc(C)c(C)cc32)c(OC)c1OC (centres unmarked) | -7.25% |
| COc1ccc(C2/C(=C(\O)OC3CCCCC3)C(C)=Nc3ncnn32)c(OC)c1OC (centres unmarked) | -2.01% |
| Cc1ccc(Cn2cc(CCCC(=O)NCCN(C)C)c3ccccc32)cc1 | 2.89% |
| CC1=C(C)C[C@@](SC#N)(c2ccccc2)S(=O)C1 (some centres unmarked) | 0.214% |
| CN(Cc1ccco1)S(=O)(=O)c1ccc2[nH]c3c(c2c1)CCCC3 | -7.05% |
| Cc1c(C(=O)NCc2cccnc2)oc2ccc3c(c12)C(O)CC(C)(C)O3 (centres unmarked) | -4.21% |
| CCOc1cc(S(=O)(=O)Nc2ccccn2)ccc1Cl | -1.17% |
| CC(C)Cc1ccc(-c2[nH]nc3c2C(c2ccncc2)C(C#N)=C(N)O3)cc1 (centres unmarked) | -1.07% |
| O=C(NCc1ccc(Cl)c(Cl)c1)c1ccc2c(c1)OCO2 | -1.44% |
| O=C(C1CCN(S(=O)(=O)c2ccccc2)CC1)N1CCOCC1 | -11.7% |
| CC1CCN(Cc2nc(-c3ccc(Cl)cc3)no2)CC1 | -5.58% |
| COc1ccc(NC(c2ccc(O)cc2)P(=O)(OC)OC)cc1 (centres unmarked) | -7.42% |
| COc1ccc(-c2noc(CN(C(=O)COc3ccc(Br)c(C)c3)C(C)C)n2)cc1 | 4.41% |
| Cc1cccc(Cn2c(CCCNC(=O)c3ccco3)nc3ccccc32)c1 | -2.99% |
| O=C(O)Cn1cc(/C=C2/NC(=O)NC2=O)c2ccccc21 | -1.25% |
| CC(C)OP(=O)(OC(C)C)C(Nc1ccc(Br)cc1)c1c[nH]c2ccccc12 (centres unmarked) | -1.59% |
| COc1ccc(N2C(=O)C3ON(c4ccccc4)C(c4ccc(O)cc4)C3C2=O)cc1 (centres unmarked) | -3.16% |
| CCOC(=O)C1=C(CC)OC(N)=C(C#N)C1c1ccccc1Cl (centres unmarked) | 9.14% |
| Cc1cc(C)n2c(NC(C)C)c(-c3ccc(C)o3)nc2n1 | -2.41% |
| Cn1c(=N)n(CC(=O)c2ccc(Br)cc2)c2ccccc21 | 0.161% |
| COc1cc2c(cc1OC)CN(S(=O)(=O)c1ccc(Oc3ccccc3)cc1)CC2 | -6.65% |

| Structure (SMILES) | % Inhibition @ 10 uM |
| --- | --- |
| N#CCNC(=O)C(NC(=O)c1ccccc1)Nc1ccccc1 (centres unmarked) | 1.35% |
| O=C(c1ccc(Cl)cc1Cl)N1CCC(C(=O)N2CCCCCC2)CC1 | -6.92% |
| Cc1ccnc2nc(NC(=O)C(C)(C)C)nn12 | -3.08% |
| O=C1c2ccccc2C(=O)N1CC(O)COC1CCCCC1 (centres unmarked) | 6.12% |
| O=C(O)c1ccc2c(c1)C(=O)N(c1cccc(N3C(=O)c4ccc(C(=O)O)cc4C3=O)n1)C2=O | 6.11% |
| CN1C(=O)C(=Cc2cccc([N+](=O)[O-])c2)C(=O)N(C)C1=O | -5.96% |
| O=C(/C=C/c1ccc2c(c1)OCO2)NCCn1ccc2ccccc21 | -0.396% |
| COC(=O)c1ccc(Cl)c(NC(=O)CCC2CCCCC2)c1 | -5.6% |
| O=C(c1ccccc1)N1CC(COc2ccccc2)OC(c2ccc3c(c2)OCO3)O1 (centres unmarked) | -1.98% |
| Cc1ccc(C)c(NC(=O)CSc2n[nH]c(CNc3ccccc3)n2)c1 | 0.673% |
| O=S(=O)(Nc1ccc(Oc2ccccc2)cc1)c1cccc2cccnc12 | 4.44% |
| Cc1cccc(NC(=O)c2ccc3c(c2)OCO3)c1C | -2.29% |
| Cc1cc2c(n1-c1ccc(C(=O)O)cc1)CCCC2 | -1.75% |
| Cc1cc(OC(C)C(=O)N(Cc2sccc2C)C2CCS(=O)(=O)C2)ccc1Cl (centres unmarked) | 0.569% |
| CCN1CCN(c2c(C(=O)c3ccc(OC)cc3)cnc3ccc(F)cc23)CC1 | -5.03% |
| CCCC/N=C(\C)C1=C(O)CC(C)(C)CC1=O | 3.72% |
| C=CCNC(=O)CCN1N=C(c2ccc(C)cc2)CCC1=O | -0.0542% |
| O=C(O)CCn1cncn1 | 0.0539% |
| COc1ccc(CCNC(=O)c2ccc3c(Cl)c4c(nc3c2)CCC4)cc1OC | -0.495% |
| CCCNC(=O)NC(=O)c1ccc2ccccc2c1 | -1.5% |
| CCOc1cc(C#N)c(NC(=O)c2ccc(F)cc2)cc1OCC | 0.231% |
| CCOc1ccccc1NC(=O)CN(c1cc(Cl)cc(Cl)c1)S(C)(=O)=O | -12.3% |
| CCOC(=O)c1cnn2c(C(F)(F)F)cc(C)nc12 | -3.53% |
| CCOC(=O)c1nnc(O)c2ccccc12 | -2.19% |
| CS(=O)(=O)C1=NSC2=NC(=O)/C(=C\c3ccco3)C(=N)N21 | -5.27% |
| C#CC(C)(CC)NC(=O)CCc1ccccc1 (centres unmarked) | 2.7% |

| Structure (SMILES) | % Inhibition @ 10 uM |
| --- | --- |
| O=C(NCc1cccs1)C(NS(=O)(=O)c1ccc(Br)s1)c1ccccc1 (centres unmarked) | -0.0508% |
| COc1ccccc1CNC(=O)c1ccc(CS(=O)c2ccccc2)o1 (centres unmarked) | -1.28% |
| CNc1nc2nc(O)c3c(c2s1)OC(N)=C(C#N)C3c1ccccc1 (centres unmarked) | 1.76% |
| COc1ccc(Cn2c(C(=O)O)c(CNCc3cccs3)c3ccc(OC)cc32)cc1 | -2.97% |
| O=C(Nc1nn[nH]n1)c1cc(-c2ccccc2Cl)nc2ccccc12 | -4.84% |
| CCOC(=O)Nc1ccncc1[N+](=O)[O-] | 1.44% |
| Cc1cc(C)n(-c2cc(N3CCCCC3)ncn2)n1 | -4.5% |
| Cc1ccc(-c2c(C(=O)O)n(Cc3ccccc3)c(=O)c3ccccc23)cc1C | 2.31% |
| CC(Cc1ccccc1)NC(=O)C1COc2ccccc2O1 (centres unmarked) | -0.401% |
| COc1ccc(CC(=O)O/N=C(\N)c2cccnc2)cc1 | -3.06% |
| COCCN1C(=O)c2oc3ccc(C)cc3c(=O)c2C1c1ccc(OCC(N)=O)cc1 (centres unmarked) | -2.91% |
| CCCOCc1ccc(O)c2ncccc12 | -2.13% |
| O=C(c1cc(-c2ccccc2)[nH]n1)N1CCc2ccccc2C1 | 3.13% |
| O=C(NCCc1ccncc1)c1ccc(Br)o1 | 3.47% |
| COC(=O)C1=C(C)N(C)C(=O)NC1c1ccccc1 (centres unmarked) | 5.7% |
| Brc1ccccc1CN1CCN(C/C=C/c2ccccc2)CC1 | -3.71% |
| Cc1ccc(C(=O)N[C@@H](CC2CCCCC2)C(=O)NCC#N)s1 | -3.49% |
| CN(C)c1ccc(CNCc2cccs2)cc1 | -1.44% |
| O=C(c1ccccc1)N1CCN(c2ccc(F)cc2)CC1 | 3.47% |
| CCOC(=O)c1oc(-c2ccc(F)cc2)nc1C | -2.83% |
| CC(C)CC(C(=O)N1CCOCC1)N1Cc2ccccc2C1=O (centres unmarked) | -1.86% |
| CS(=O)(=O)C1CCCCC1S(=O)(=O)Cc1ccc(Cl)cc1 (centres unmarked) | -6.62% |
| O=C(CCn1c(=O)[nH]c2ccsc2c1=O)N1CC(=O)N(CCc2ccccc2)C(=O)C1 | -5% |
